Measured values reported in the supplement of paper PMC3334620.
Over roughly 33,000 sequences, “E-score (-0.5 to 0.5)” has its median near -0.012; the highest 2% begin near 0.27. The list shows a part of the results.

molecular target: T1, Vhr1 (UniProt P40522); experiment: PBM E-score (8-mer binding enrichment) (E-score (-0.5 to 0.5)); higher = stronger / more preferred TF binding; most listed sequences are background and not binding sites; details: protein concentration: 200 nM; construct: GST-full length
T1 sequence: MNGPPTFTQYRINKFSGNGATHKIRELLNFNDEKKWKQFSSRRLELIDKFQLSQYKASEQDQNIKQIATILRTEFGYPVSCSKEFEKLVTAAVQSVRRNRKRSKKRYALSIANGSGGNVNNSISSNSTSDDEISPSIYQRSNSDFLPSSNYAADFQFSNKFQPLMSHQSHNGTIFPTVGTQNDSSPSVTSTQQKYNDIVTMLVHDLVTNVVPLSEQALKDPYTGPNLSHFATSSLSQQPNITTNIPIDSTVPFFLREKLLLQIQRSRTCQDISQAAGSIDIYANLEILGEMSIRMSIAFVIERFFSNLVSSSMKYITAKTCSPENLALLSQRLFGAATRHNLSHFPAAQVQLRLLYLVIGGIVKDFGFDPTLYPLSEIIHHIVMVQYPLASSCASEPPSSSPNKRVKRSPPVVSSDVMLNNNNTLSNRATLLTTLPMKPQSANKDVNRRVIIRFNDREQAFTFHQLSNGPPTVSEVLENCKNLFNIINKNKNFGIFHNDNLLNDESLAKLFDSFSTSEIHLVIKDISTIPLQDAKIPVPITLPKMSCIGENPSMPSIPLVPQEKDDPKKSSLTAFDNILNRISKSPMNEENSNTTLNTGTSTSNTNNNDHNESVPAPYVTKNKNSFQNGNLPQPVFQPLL
Procedure, shortened: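 Universal all-10-mer Agilent arrays, double-stranded by primer extension on fresh or once-stripped slides, were probed with about 100-200 nM GST-tagged yeast transcription factors made by PURExpress. Fluorescent anti-GST detected bound protein, and masliner normalised the scans. E-scores from the Universal PBM Analysis Suite were given to each ungapped eight-base word pooled with its reverse complement.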

Sequence | PBM E-score
ATGAATTC | 0.103
AAACCCAA | -0.0052
CAATCACA | 0.211
ATCATAGG | 0.141
TGTGTAAA | 0.0958
ACCGTAGT | 0.0221
GACGTTAA | -0.0139
TCAACTAA | -0.0555
ACGATAGG | -0.102
AGAGTAAC | 0.0343
GTCTGGCA | -0.105
AACTTAGG | -0.101
GAGACGAC | -0.0698
CAAATTAC | -0.153
CTTAGGAA | -0.105
TGTTCAAA | 0.00608
AGGTGTCA | 0.168
GGGTGCGA | 0.0172
CCATACAA | 0.0171
AAAAATCA | 0.0601
GTTCAGGA | -0.0515
CCGAAAAA | 0.0254
ACGGGAAT | -0.146
CTATTGTC | -0.00994
ACCAAGTA | 0.103

Sequence | PBM E-score
TCCTCTCA | -0.138
GATGGAAA | -0.166
GTTGTGAA | 0.0148
CCGGATAA | -0.0159
GGGTTCAA | -0.126
ATTTTTCG | -0.0311
CTCTCCCA | -0.105
GTTGGAGA | -0.0272
ACGGCAGG | -0.0337
ATTTACTA | 0.0404
GTATATGA | 0.225
GGCCTACA | -0.0767
CCGTACAG | -0.131
AAAATCGC | -0.102
CGGGGAAC | -0.00162
CCAAACTC | 0.186
AACGCTCG | 0.0129
GATGGGGC | -0.214
ACCCGCGC | 0.342
CGACCTAC | -0.00114
ATACCGTA | 0.0215
GGGTCTAA | 0.0208
GTCGGGTA | 0.12
CTTAGATA | -0.0809
ATGGCCAT | -0.153

Sequence | PBM E-score
AATCGCCT | 0.248
CTGTTCGC | 0.0266
GTTACTAA | 0.0333
GCCCACCC | 0.284
CTGGGGTA | -0.157
ATGCTAAT | -0.0227
CATTAAAA | 0.0893
CGTGATGA | 0.0242
GAGCTTAC | -0.0921
GGAGGCCC | -0.283
CGCCGGGC | 0.213
AAGTCGCT | 0.0823
CGGCTCAA | 0.0103
TCACCTCA | 0.0985
TATTGTAA | -0.0846
GGATTCAC | 0.0757
ATTGGCTG | -0.0538
AGGCCTCC | -0.0772
GCTAACCA | 0.0612
AGCCCTAG | -0.096
CTGACCAC | -0.0676
GCCAAGAC | -0.0123
ATTCGCCA | 0.156
CTTCGAGC | -0.153
AAAATCTC | -0.043

Sequence | PBM E-score
ATCTATAA | -0.137
AAAGCATA | -0.0696
GGGCTCCA | -0.158
CATATTCC | -0.171
CAGGTACA | 0.0667
CCACCCAG | 0.115
CCGCCAAA | 0.0122
AACTACAC | 0.0739
TACACAAA | 0.0773
GCTCTTAA | -0.0965
GGGGTAGA | 0.0361
CCTGTGAA | -0.0995
GATAGTCA | 0.357
GTATGGAA | -0.0887
AATAGCTA | -0.116
GCGGATAA | 0.169
AACTCAGT | 0.00455
GACCAAAA | 0.0585
CCCGGGGC | -0.0124
ATGTACAC | 0.113
GAACCATC | 0.212
CACGCGGA | 0.215
CCCTGACG | -0.0114
ACGTTCGA | -0.176
AAAATGTA | 0.00485

Sequence | PBM E-score
ATGACCAG | 0.0367
AGATGAAC | -0.0339
CTTGATTA | 0.0605
CTATATCA | 0.064
GGTGGACA | -0.0244
AAATTCGG | -0.0086
ATAGAGTG | 0.0554
GCTAGAGA | -0.235
AAAATAGG | -0.0375
CCGGCGCC | 0.112
GAGATGAA | 0.00829
GAAAGACC | -0.127
CGACTCTC | 0.278
ACGGTTCG | -0.0569
TAGGGAAA | -0.0504
CTGTGTAA | 0.134
AATCATAT | 0.296
CAGGATAC | -0.0962
CTTTCATA | -0.00958
AAGCCTCC | -0.172
GTGACAAC | 0.119
CCCAGGGG | 0.00897
ACAAGACT | 0.0436
GGTAGCCA | 0.0707
AGAGCAGG | 0.0243

Sequence | PBM E-score
TATCGAGA | 0.0713
CCCGCTCC | -0.19
CAGGCACG | 0.184
AGATTGGC | -0.0581
AAGGCCGC | -0.175
CGGGGTTA | -0.047
GGTTGCGA | 0.167
AAGTTGCG | -0.188
AATGTTGC | -0.0613
ATAGCAAT | 0.0575
CGAAGGCC | -0.278
AGAGCGGG | 0.0355
AGGGCCCA | -0.175
ACCCATCA | 0.261
AACTGGCT | -0.204
GTCCCCTA | -0.213
CATACGAA | 0.182
CTTCCCGC | 0.0761
AGTGAACT | -0.0748
AATAAATC | -0.116
CCTAATCC | -0.116
AAAAGGCG | -0.0625
GATAAGGC | -0.0808
GAGTTGAA | -0.122
CGCACGCG | 0.00561

Sequence | PBM E-score
GAATGGGC | 0.068
ACTAAAGG | -0.136
ATTCACAA | 0.14
CCCCTTCC | -0.235
ATCGGTGG | 0.00571
ATCCGATG | 0.221
CAGAGCAC | 0.143
GGGGGCAC | -0.127
GATCTGGC | -0.194
CAAAAGAC | -0.162
ACTATATG | 0.0345
TTAGTGAA | 0.102
AGAATCGG | -0.0586
CAAGGCCC | -0.18
GAGGATGC | -0.0556
GATGCCCA | -0.115
TACCAGGA | 0.0535
AACCTCAG | -0.103
AAGCAAGG | -0.11
ATGTAGCA | 0.00252
TAAAGTCA | 0.26
GGAAGCAC | -0.0937
